Here are results for 54 sequences from PMC7819943, “Rice protein-binding microarrays: a tool to detect cis-acting elements near promoter regions in rice”.

Some of the results follow.

For this test, the target named is T1, OsWOX13 (Oryza sativa, UniProt Q5QMM3 1-267).
T1 sequence: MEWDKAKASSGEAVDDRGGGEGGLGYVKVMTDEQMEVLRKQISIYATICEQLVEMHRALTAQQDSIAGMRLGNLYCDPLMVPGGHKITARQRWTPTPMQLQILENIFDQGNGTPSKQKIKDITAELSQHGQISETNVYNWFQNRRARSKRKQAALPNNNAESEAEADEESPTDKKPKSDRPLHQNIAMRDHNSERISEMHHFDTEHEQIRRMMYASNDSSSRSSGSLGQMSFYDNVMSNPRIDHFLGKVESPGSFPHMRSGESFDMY
Description: protein-binding microarray (RPBM); PBS, 2% BSA, 51.3 ng/ul salmon testes DNA, 50 uM zinc acetate, 200 nM TF, 25 C, 1 h; high values mean tight binding. To be noted: protein: recombinant; tags: N-terminal polyhistidine and DsRed monomer fusion (pET32a); label: CyDye5-dUTP incorporated in the synthesized complementary strand; 3' TTTTT single-stranded linker to array surface; dsDNA, one strand shown. In a few lines: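 The binding signal for each feature is its fluorescence intensity in arbitrary units. An Axon 4000B scanner was used to read a custom Agilent array that had been made double-stranded with Cy5-dUTP primer extension, blocked with 2% BSA, incubated at 25 °C for 1 h with 200 nM protein in PBS, 2% BSA, salmon testes DNA and 50 µM zinc acetate, and washed. The protein was an N-terminal polyhistidine–DsRed transcription factor fusion from E. coli BL21-CodonPlus, purified on Ni–NTA.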
For “TTACTAATTAGGAGGAGTATTAATGTATTATTACACGTAACGGAGTCACCTAGTGCAG”, the binding signal was 18500 fluorescence intensity (a.u.).

On to “GAAAATTAACAAGTTTAAGGAGTCAGCATGGAAATTCGTCCGGAGTCACCTAGTGCAG”, for which the binding signal was 9750 fluorescence intensity (a.u.).

For the sequence “TGTTATATAAATTTGATCAAAATTAAAGAAGTTTGACTTACGGAGTCACCTAGTGCAG”, the binding signal is 11900 fluorescence intensity (a.u.).

For “AATTACTGATTACTAGTATTAAACAAGAGTTTAGTGTCGCCGGAGTCACCTAGTGCAG”, the binding signal was 23700 fluorescence intensity (a.u.).

On to “TGAGAAAGGTTGTGATTGATTGAGAAGAGAAAAGTGAAAACGGAGTCACCTAGTGCAG”, for which the binding signal was 27300 fluorescence intensity (a.u.).

Consider “ACTTAATTATGTTGTGGTTAATTAGCCCCGAAATGGTCGTCGGAGTCACCTAGTGCAG”, for which the binding signal was 52900 fluorescence intensity (a.u.).

“TAGGTGATTAGTTGATTAATTAATCTTGAGCTCCTCCTAACGGAGTCACCTAGTGCAG”: the binding signal is 58800 fluorescence intensity (a.u.).

With “GGGGTGTGATCGGTCAATTTCAAATTGGATAATGGCTAAACGGAGTCACCTAGTGCAG”, the binding signal is 8330 fluorescence intensity (a.u.).

In the case of “AACCCTGATTATCATATGATCTTAGGAGTTACTCGACGCCCGGAGTCACCTAGTGCAG”, the binding signal was 34700 fluorescence intensity (a.u.).

“CCGCAACAATCAATGGATGAGATTCATCTTGCGATCCTTCCGGAGTCACCTAGTGCAG”: the binding signal was 8140 fluorescence intensity (a.u.).

Regarding “CGGTTAGATTACATTGGTACCTCATGATATCTCGTACCTCCGGAGTCACCTAGTGCAG”, the binding signal is 4680 fluorescence intensity (a.u.).

For “AGGCTGATTGCCAAAACTCAATGCCAGCTTGAAGGCAGTACGGAGTCACCTAGTGCAG”, the binding signal was 8420 fluorescence intensity (a.u.).

In the case of “TTAACCAAATTTTCAATTTCAACGTGAACTAAACACATGTCGGAGTCACCTAGTGCAG”, the binding signal is 6820 fluorescence intensity (a.u.).

As to “GTGATTTGTTCGAAATTGTGCTAGTTCCAACCAAAATACACGGAGTCACCTAGTGCAG”, the binding signal was 12500 fluorescence intensity (a.u.).

On to “TTTTGTGATAATTTTATTACTAAATCTATAGTTTGGTGATCGGAGTCACCTAGTGCAG”, for which the binding signal was 5520 fluorescence intensity (a.u.).

Regarding “AGATAATTTTAAATTGATGATAGCCGTGTAGTTGTGCGGGCGGAGTCACCTAGTGCAG”, the binding signal was 44600 fluorescence intensity (a.u.).

For “ATTAAGTCTAATTAATCTGTTATTAGCAAATGTTTACTGTCGGAGTCACCTAGTGCAG”, the binding signal is 11100 fluorescence intensity (a.u.).

In the case of “GAACTTAATTTTGAGTCATGCCAAAACGTCGAAATTTCACCGGAGTCACCTAGTGCAG”, the binding signal is 10100 fluorescence intensity (a.u.).

“CACGTAATCACGGCATGATCCAACGGTGCTGGATGACTGACGGAGTCACCTAGTGCAG”: the binding signal was 4760 fluorescence intensity (a.u.).

Take “GTAAATAGATACAAATATATATATTTATCTATTAGTTTATCGGAGTCACCTAGTGCAG”: the binding signal is 5870 fluorescence intensity (a.u.).

As to “TAATTAGTCCATGATTAGCCATAAGTGTTATAGTAACTCACGGAGTCACCTAGTGCAG”, the binding signal was 4330 fluorescence intensity (a.u.).

Consider “CCGGAGGCATGATTTTGTTAAACAGGAGAGTTGAACGATGCGGAGTCACCTAGTGCAG”, for which the binding signal was 5120 fluorescence intensity (a.u.).

For the sequence “AGGCAAATTGAAACCGAAGTATTAGTCCTTCACGCCAAAGCGGAGTCACCTAGTGCAG”, the binding signal is 21000 fluorescence intensity (a.u.).

For the sequence “GGTAACTGACGAGATTTGCATCCTTATTTCTAGCTAGTCCCGGAGTCACCTAGTGCAG”, the binding signal is 25200 fluorescence intensity (a.u.).

Take “CAGACTGACAAGTGACAAGCAGAGGGCATCTCAGTACGCGCGGAGTCACCTAGTGCAG”: the binding signal is 3390 fluorescence intensity (a.u.).

As to “GAAAATTGCAATCTAGTACTCCCAACGTTCCAGAATATAACGGAGTCACCTAGTGCAG”, the binding signal is 9350 fluorescence intensity (a.u.).

Take “TCGGTCTGCAAACAAATTGATTGATTTGTTTTCCTTTTGCCGGAGTCACCTAGTGCAG”: the binding signal is 47100 fluorescence intensity (a.u.).

As for “ATAGTGATTTTAAGCCGATGATGACTATAGGGCTTACCGACGGAGTCACCTAGTGCAG”, the binding signal was 3680 fluorescence intensity (a.u.).

With “CATTGGATTGGATGATCCATCTTGCAGGCCTGTGGCATGGCGGAGTCACCTAGTGCAG”, the binding signal was 8190 fluorescence intensity (a.u.).

On to “TCAACTACTTATATTAATTAACGTCATTTTGTCAACGTTTCGGAGTCACCTAGTGCAG”, for which the binding signal is 3160 fluorescence intensity (a.u.).

Take “CAATGCTAAAATTTTGACAAATTAGTAATATTACTAAAATCGGAGTCACCTAGTGCAG”: the binding signal is 3810 fluorescence intensity (a.u.).

In the case of “TCTAAAATTTGGCTTGATAATTGGAGGCATCCAGATAGATCGGAGTCACCTAGTGCAG”, the binding signal was 15900 fluorescence intensity (a.u.).

Regarding “AAATTAGATAGGATATTTTCTAGTACTACAAATATGGACACGGAGTCACCTAGTGCAG”, the binding signal is 8260 fluorescence intensity (a.u.).

For the sequence “ATATTTGACAAATAATTAAATACCCCTCCAAAGCTGATGACGGAGTCACCTAGTGCAG”, the binding signal was 7640 fluorescence intensity (a.u.).

Consider “TAATAAATATTTGATTATAGATAATTCTCACCAATAATCCCGGAGTCACCTAGTGCAG”, for which the binding signal was 6210 fluorescence intensity (a.u.).

Consider “CTGTTCCTAAATTACAATGTATTTAGAAGTTTCACTACTACGGAGTCACCTAGTGCAG”, for which the binding signal is 3540 fluorescence intensity (a.u.).

Consider “AAGTTCAAATTTTGAATTTCAATTATGGCTGATAAGCTACCGGAGTCACCTAGTGCAG”, for which the binding signal was 6990 fluorescence intensity (a.u.).

“CAAAATTATGTGACACTTACATATAAGTTACACTGTAGTTCGGAGTCACCTAGTGCAG”: the binding signal was 6290 fluorescence intensity (a.u.).

With “CTCTGATTAGCCTTCTTTTCTAAAGATCATGTGATTTCAACGGAGTCACCTAGTGCAG”, the binding signal was 13000 fluorescence intensity (a.u.).

Turning to “TATATATATATATATATATATATATATATATATATACACACGGAGTCACCTAGTGCAG”, the binding signal was 10800 fluorescence intensity (a.u.).

On to “CCTGATTTCGCACATCATCAAGACATCTTTGCCGTGATACCGGAGTCACCTAGTGCAG”, for which the binding signal is 15400 fluorescence intensity (a.u.).

As for “TTGGCAATTGTAATTGAGCGTCATGGCTGACGAATTTCTTCGGAGTCACCTAGTGCAG”, the binding signal was 8520 fluorescence intensity (a.u.).

Turning to “AAAGTTAATTTATTTTGAGACAGATATACTACATATCACACGGAGTCACCTAGTGCAG”, the binding signal is 29100 fluorescence intensity (a.u.).

Take “CTAATTACATGTAATAAACTTACCGTTCATAACATTTACACGGAGTCACCTAGTGCAG”: the binding signal was 17300 fluorescence intensity (a.u.).

In the case of “AAACAATTACGTCTGCTTGACAGATCAGAAGATTCTAACGCGGAGTCACCTAGTGCAG”, the binding signal was 21800 fluorescence intensity (a.u.).

Regarding “GCATGACAAATGGCGTTAATTAGTCCACAAATAATATATACGGAGTCACCTAGTGCAG”, the binding signal is 3210 fluorescence intensity (a.u.).

“ATTTCCCTTCCCTTTCTTTCTTTCTTTCTTTCTTTCTTTCCGGAGTCACCTAGTGCAG”: the binding signal is 6080 fluorescence intensity (a.u.).

“AAACGATCAATTAATTAATTGATTATCCGCGCGCGCGCGGCGGAGTCACCTAGTGCAG”: the binding signal was 26530 ± 63.6 fluorescence intensity (a.u.).

“CAGTCGGTTGATTTGATCATGGGTACCATGACTCTGCCCCCGGAGTCACCTAGTGCAG”: the binding signal was 14900 fluorescence intensity (a.u.).

As for “GCTGATGATGATGCAGTTCTAAGAGGAGTGCAGTTGTGAGCGGAGTCACCTAGTGCAG”, the binding signal is 3320 fluorescence intensity (a.u.).

“TGTTGATTTGCTACCCTTCCTTCCGTCCTCAACATTATCACGGAGTCACCTAGTGCAG”: the binding signal was 31600 fluorescence intensity (a.u.).

Consider “ATTAACTATTAGATTGGCTATATATGAATTAGAGTTAGCACGGAGTCACCTAGTGCAG”, for which the binding signal was 30500 fluorescence intensity (a.u.).

For “TTTATGTCTAATTAAATTATCCTGTTTCGGAGGTGATTAACGGAGTCACCTAGTGCAG”, the binding signal was 17500 fluorescence intensity (a.u.).

As to “TTTGAGCCTAATTAAGCTGTCATTAGCACATATGGGTTACCGGAGTCACCTAGTGCAG”, the binding signal is 10300 fluorescence intensity (a.u.).
